“And” between values parts separate entries of the source, which are not always exact repeats. Identical values can stand only once. The list shows a part of the results. Shown are side measurements of this screen, not its main read-out; they come without a call. Peptide text beside a SMILES is read from it. * marks the point of attachment. AFC = O=c1cc(C(F)(F)F)c2ccc(N*)cc2o1
Experiments:
Assay in all cases: Primary Screen for Target Class Profiling of Small Molecule Inhibitors of Methyltransferases
[1] = biological target: Glycine N-methyltransferase (Homo sapiens) (UniProt Q14749); conditions: purified enzyme, MTase-Glo SAH luminescence; measured here: GNMT inhibition; at 40 µM; stronger effect = lower value
Summary of the method: (§1)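 Each enzyme was assayed with SAM and its substrate. SAH formation detected by MTase-Glo luminescence; single-point 40 uM screen[…].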

[2] = biological target: Guanidinoacetate N-methyltransferase (Homo sapiens) (UniProt Q14353); conditions: purified enzyme, MTase-Glo SAH luminescence; measured here: GAMT inhibition; at 40 µM; stronger effect = lower value
Summary of the method: as §1

[3] = biological target: Histamine N-methyltransferase (Homo sapiens) (UniProt P50135); conditions: purified enzyme, MTase-Glo SAH luminescence; measured here: HNMT inhibition; at 40 µM; stronger effect = lower value
Summary of the method: as §1

[4] = biological target: Nicotinamide N-methyltransferase (Homo sapiens) (UniProt P40261); conditions: purified enzyme, MTase-Glo SAH luminescence; measured here: NNMT inhibition; at 40 µM; stronger effect = lower value
Summary of the method: as §1

[5] = biological target: Phenylethanolamine N-methyltransferase (Homo sapiens) (UniProt P11086); conditions: purified enzyme, MTase-Glo SAH luminescence; measured here: PNMT inhibition; at 40 µM; stronger effect = lower value
Summary of the method: as §1
% is set by controls: 0 for no effect and ±100 for the full control effect.

Compound | activity change, negative = inhibition [1] | activity change, negative = inhibition [2] | activity change, negative = inhibition [3] | activity change, negative = inhibition [4] | activity change, negative = inhibition [5]
CCCSCCCN1C(=O)c2nc3ccccc3n2CC1(C)C(=O)NC1CCCC1 (stereo not given) | -6.13% | 2.09% | -5.95% | -5.03% | -6.32%
O=C(Cc1cccs1)N1CCCn2cc(-c3ccccc3F)nc21 | -5.59% | -4.11% | -37.9% | -17% | -18.3%
CCN(CC)CCN(Cc1ccc(-c2ccc(C(F)(F)F)cc2)cc1)C(=O)Cn1c(SCc2ccc(F)cc2)nc(=O)c2c1CCC2 | -7.07% | -2.16% | -24.8% | -62.2% | -17.3%
COc1cc(OC)cc(N2C(=O)c3cc(-c4ccccc4)nn3CC2(C)C(=O)NCc2ccccc2)c1 (stereo not given) | 0.525% | 0% | 0.612% | 1.86% | -0.281%
COc1ccc(CN2CCCC(COc3ccccc3C(=O)NC3CC3)C2)c(OC)c1 (stereo not given) | -1.92% | 1.75% | -50.6% | -28.7% | 0.593%
COC(=O)[C@H](CC1C=NC=N1)NCC12CC3CC(CC(C3)C1)C2 (stereo not given in full) | 1.98% | -4.12% | 9.73% | -14.4% | -0.294%
O=C(NC1CCc2nnc(C3CC3)n2CC1)c1cnco1 (stereo not given) | 1.08% | 0.27% | 3.19% | -3.49% | 0.623%
CCOC(=O)[C@H](CCc1ccccc1)N[C@@H](C)C(=O)N1[C@H](C(=O)O)C[C@H]2CCCC[C@@H]21 | 2.4% | -0.852% and 7.24% | 3.48% | -9.58% and -3.89% | 4.13% and 4.87%
CCN(Cc1cccnc1)C(=O)CN(c1ccc(OC)nc1)S(=O)(=O)c1ccccc1C | -3.33% | -7.47% | 12.2% | -13.5% | 0.073%
CC(C)CCn1c(=O)c2ccc(C(=O)NCC(C)C)cc2n2c(=O)n(Cc3ccccc3F)nc12 | 9.37% | 3.18% | 11.4% | 12.4% | 12.2%
Cc1[nH]cnc1CN1CCc2nc(C(=O)NCCOc3ccccc3)oc2CC1 | -6.68% | 1.11% | -7.16% | -3.73% | 13.6%
CC(=O)N[C@@H](CC(C)C)C(=O)N[C@@H](CCC(=O)O)C(=O)N[C@@H](CCC(=O)O)C(=O)N[C@@H](CC(=O)O)C(=O)Nc1ccc2c(C(F)(F)F)cc(=O)oc2c1 (Ac-LEED-{AFC}) | 1.49% | 7.72% | 5.11% | -7.71% | -1.48%
COc1ccccc1CNC(=O)C1c2c(n(C)c3ccccc23)SCC(=O)N1c1ccc(C)c(Cl)c1 (stereo not given) | 4.7% | 2.54% | -5.5% | -7.96% | -1.93%
COC(=O)c1cc2n(n1)CC(C)(C(=O)NC1CCC(C)CC1)N(c1cc(C)cc(C)c1)C2=O (stereo not given) | 7.67% | 0.741% | 3.24% | 9.54% | 7.13%
CCCCN(CC)CCCN1C(=O)c2cc3occc3n2CC1(C)C(=O)NC1CCCCCC1 (stereo not given) | -8.81% | 0% | -5.96% | -2.28% | -6.62%
CC(C)Cn1nc(CNC(=O)c2ccccc2F)c2ccccc21 | 4.62% | 0.917% | 3.81% | -1.77% | 3.24%
C[C@@H]1O[C@@H](O[C@H]2[C@H](O[C@H]3[C@H](O[C@H]4CC[C@@]5(C)C(CC[C@]6(C)C5CC=C5[C@@H]7CC(C)(C)CC(=O)[C@]7(C)CC[C@]56C)[C@@]4(C)CO)O[C@H](C(=O)O)[C@@H](O)[C@@H]3O)O[C@H](CO)[C@H](O)[C@@H]2O)[C@H](O)[C@H](O)[C@H]1O (stereo not given in full) | -1.43% | -1.45% | 7.01% | -19.7% | 8.18%
CCOC(=O)c1cc2n(n1)CC(C)(C(=O)NC1CCC(C)CC1)N(c1ccccc1CC)C2=O (stereo not given) | 8.1% | 2.91% | 8.03% | 3.67% | 6.29%
CCOc1ccc(C(Nc2ccccn2)c2ccc3ccc(C)nc3c2O)cc1C (stereo not given) | 1.58% | -17.4% | 2.69% | -31.8% | -7.54%
CNc1cc(C2CC(NS(=O)(=O)c3ccc(Cl)s3)C2)nc(N)n1 (stereo not given) | -6.01% | -0.907% | -17.4% | -19.1% | -13.3%

Compound | activity change, negative = inhibition [1] | activity change, negative = inhibition [2] | activity change, negative = inhibition [3] | activity change, negative = inhibition [4] | activity change, negative = inhibition [5]
O=C(Nc1ccc(F)cc1)N1CCn2cccc2C1Cc1ccccc1 (stereo not given) | -4.76% | 0% | 4.09% | -0.906% | 0.683%
O=C1COc2ccc(N3CCCC3)nc2CN1Cc1ccc(C(F)(F)F)cc1 | -15.2% | -6.17% | -18.6% | -26.5% | -0.764%
CCCNC(=O)N1CCC(n2c(C)cnc2C2CCOCC2)CC1 | 1.62% | 4.62% | 4.32% | -7.88% | 16.1%
CCc1ccc(C(=O)N2CC(c3nnc(C(C)C)o3)C3(CCOCC3)C2)cc1 (stereo not given) | -2.06% | -2.75% | -0.009% | -12.4% | -3.27%
CCc1ccc(NC(=O)CSc2nnc3[nH]c(=O)c(Cc4ccc(C)cc4)nn23)cc1 | -5.29% | -0.171% | -12.3% | -15.9% | -10.8%
C/C=C/C=C/C=C/C(=O)OC1C=C(C=O)C(O)(C(=O)O)C2(C)CCCC(C)(C)C12 (stereo not given) | -1.98% | -8.26% | 6.71% | -19.8% | -10.1%
Cc1ccc(NC(=O)[C@@H]2CNC[C@H](C(=O)NCc3ccccn3)C2)cn1 | -4.42% | 1.13% | 0.834% | -9.24% | 10.6%
O=C(NC1CCCC1)c1cc2cn(C3CC3)cc2s1 | -13.9% | -2.93% | -4.02% | -4.9% | -11.2%
CCOc1ccccc1CN1C(=O)c2cc3oc(C)cc3n2CC1(C)C(=O)NC1CCCCC1 (stereo not given) | -1.58% | 1.54% | 2.77% | -8.66% | -0.173%
CC(=O)NNC(=O)N1Cc2ccccc2Oc2ccc(Cl)cc21 | -1.6% | 8.72% | 0.29% | -3.85% | 8.98%
OC1CCC(Nc2nc(-c3ccccc3)nc3[nH]ccc23)CC1 (stereo not given) | -3.92% | -7.5% | -5.42% | -16.8% | -39.1%
CC(C)c1nc2c(c(-c3ccc(O)cc3)n1)CN(Cc1cccn1C)CC2 | -8.45% | -0.837% | -1.99% | -4.95% | -11%
CCCn1c(=O)c2ccc(C(=O)NC(C)C)cc2n2c(SCC(=O)Nc3ccc(CC)cc3)nnc12 | 2.17% | 0% | 8.65% | -4.88% | -2.83%
CCOC(=O)c1cc2n(n1)CC(C)(C(=O)NC1CCCCCC1)N(Cc1cccc(C)c1)C2=O (stereo not given) | 5.38% | 1.87% | 1.5% | -1.3% | 4.58%
CC1(C(=O)NC2CCCCCC2)Cn2c(nc3ccccc32)C(=O)N1CCc1ccccc1 (stereo not given) | 4.01% | 0% | 5.74% | 4.02% | 1.88%
CC1(C(=O)NCc2ccccc2)Cn2cnc(C(=O)NCCc3ccco3)c2C(=O)N1C1CC1 (stereo not given) | -2.98% | 3.41% | -4.57% | -3.12% | -1.83%
Cc1ccc(NS(=O)(=O)c2ccc3c(c2)CCC(=O)N3)cc1C | – | 2.77% | – | -11.9% | 1.07%
CC[C@H]1OC(=O)[C@H](C)[C@@H](O[C@H]2C[C@@](C)(OC)[C@@H](O)[C@H](C)O2)[C@H](C)[C@@H](O[C@@H]2O[C@H](C)C[C@H](NC)[C@H]2O)[C@](C)(O)C[C@@H](C)CN(C)[C@H](C)[C@@H](O)[C@]1(C)O | 5.66% | 8.46% | 4.62% | -1.93% | 10.5%
CC(C)CCn1c(=O)c2ccc(C(=O)NCC(C)C)cc2n2c(=O)n(Cc3cccc(F)c3)nc12 | 4.79% | 0.449% | 4.16% | 2.67% | 4.31%
Cn1nc(C2CCN(C(=O)c3ccccn3)CC2)c2c1CCOC2 | -0.444% | -4.5% | 2.14% | -3.72% | 0.69%

Compound | activity change, negative = inhibition [1] | activity change, negative = inhibition [2] | activity change, negative = inhibition [3] | activity change, negative = inhibition [4] | activity change, negative = inhibition [5]
COc1ccccc1CNC(=O)C1(C)Cn2nc(-c3ccccc3)cc2C(=O)N1c1ccccc1F (stereo not given) | 4.11% | 1.32% | 7.68% | 7.67% | 2.19%
CCC(C)NC(=O)c1ccc2c(=O)n(C(C)C)c3nn(CC(=O)Nc4ccccc4Cl)c(=O)n3c2c1 (stereo not given) | 2.17% | 1.22% | -1.58% | -0.771% | -6.19%
COc1cccc(CN2Cc3cc(NC(=O)Cc4ccccc4)ccc3OCC2=O)c1 | -4.12% | -0.808% | -14.5% | -9.09% | -0.531%
CC(C)OCCCn1c(=O)c2ccccc2n2c(SCc3cccc(F)c3)nnc12 | -6.08% | 0.655% | 3.25% | -1.36% | 2.25%
CNC[C@H](O)c1cccc(O)c1 | 1.8% | 13% | 1.03% | -2.01% | 5.16%
CC(C)C(=O)N1CCC2(CCC(=O)N(CC3CC3)CC2)CC1 | 0.363% | 0.501% | 0.513% | -0.475% | 1.22%
N=C(N)SCCc1cnc[nH]1 | 4.84% | 12.1% | -24.9% | -6.22% | -3.43%
CN(C)S(=O)(=O)N1CC(CNC(=O)C2CC2)C2(CCCCC2)C1 (stereo not given) | 1.83% | -3.75% | -0.261% | -1.84% | -3.21%
FC(F)(F)CN1C2CCC1CN(c1cncc(Cl)n1)C2 | -4.81% | -2.51% | -2.27% | -8.26% | -1.72%
O=C(Nc1ccccc1)O[C@@H]1CO[C@H]2[C@@H]1OC[C@@H]2NC(=S)Nc1ccc(F)cc1 | -2.95% | -0.726% | 1.17% | -2.45% | -2.65%
CCOc1ccn(-c2ccc(F)cc2)c(=O)c1C(=O)Nc1ccc(Oc2ccnc(N)c2Cl)c(F)c1 | -0.699% | 5.84% | 8.69% | -22% | 2.51%
CCC(=O)NS(=O)(=O)c1ccc(-c2c(-c3ccccc3)noc2C)cc1 | 7.18% | 0.248% | 12.2% | -14.6% | 1.65%
Cc1ccc(C(=O)N2CCCCCNC(=O)CC2c2ccccc2)s1 (stereo not given) | -0.72% | 0.303% | 1.71% | -7.82% | -0.467%
COCCc1ccc(OCc2ccccc2-c2ccc(=O)n(C)n2)cc1 | -5.97% | -11.6% | -5.22% | -13.6% | -10.4%
O=C(NCCCc1ccccc1)c1cccc(-c2cc(O)c3ncccc3c2)c1 | 7.24% and -0.793% | -26.5% | 8.37% and 3.95% | -8.14% and -38.5% | -8.03% and -11.2%
CCn1cc(-c2ccnc3[nH]c(-c4cccc(CN(C)C)c4)cc23)c(-c2ccc(NC(=O)N(C)C)cc2)n1 | -20.5% and -17.8% | -4.78% | -73% and -75.1% | 0.96% and -24.2% | 32.3% and -20.9%
Cc1nc(Nc2n[nH]c3c2CN(C(=O)N[C@H](CN(C)C)c2ccccc2)C3(C)C)c2sccc2n1 | -3.67% | 3.92% | -54.4% | -33.9% | 1.6%
CC(C)(F)C[C@@H](N[C@@H](c1ccc(-c2ccc(S(C)(=O)=O)cc2)cc1)C(F)(F)F)C(=O)NC1(C#N)CC1 | 4.58% | – | 7.86% | – | –

Source: PubChem BioAssay AID1745853 (National Center for Advancing Translational Sciences (NCATS), 2022)
